Source: the supplement of paper PMC10369915
This is one part of the list. No stated cut-off is given here; in the data, active = 3.2 or more and inactive = the rest. Only a few entries rise above the background.

Columns and labels:
Experiment in all cases: enrichment score (SH2-bound / input frequency) (ratio); bacterial display of known human phosphotyrosine sites (pTyr-Var adds point mutants) read by sequencing; higher = stronger binding; tyrosines were phosphorylated by kinases first
Conditions in all cases: peptide library: pTyr-Var
SHP2 C-SH2 domain E139D = target: SHP2 C-SH2 domain E139D
[1] = target: SHP2 C-SH2 domain wild-type
SHP2 N-SH2 domain L43F = target: SHP2 N-SH2 domain L43F
SHP2 N-SH2 domain T42A = target: SHP2 N-SH2 domain T42A
SHP2 N-SH2 domain T52S = target: SHP2 N-SH2 domain T52S
[2] = target: SHP2 N-SH2 domain wild-type

Measured: enrichment score
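Further: displayed peptides selected on beads carrying the immobilized SH2 domain, with library peptides lacking any tyrosine serving as negative controls.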

B1: GFAP_Y242_R239H (peptide)
chain: EIHTQYEAMAS
inactive: SHP2 C-SH2 domain E139D 0.685 | [1] 0.787 | SHP2 N-SH2 domain L43F 0.429 | SHP2 N-SH2 domain T42A 0.533 | SHP2 N-SH2 domain T52S 0.7 | [2] 0.69

B2: GFAP_Y242_A244V (peptide)
chain: EIRTQYEVMAS
inactive: SHP2 C-SH2 domain E139D 0.717 | [1] 0.642 | SHP2 N-SH2 domain L43F 0.708 | SHP2 N-SH2 domain T42A 0.793 | SHP2 N-SH2 domain T52S 0.652 | [2] 0.828

B3: GJA1_Y247_S251T (peptide)
chain: GKSDPYHATTG
inactive: SHP2 C-SH2 domain E139D 0.426 | [1] 0.572 | SHP2 N-SH2 domain L43F 0.41 | SHP2 N-SH2 domain T42A 0.467 | SHP2 N-SH2 domain T52S 0.41 | [2] 0.55

B4: GJA1_Y247 (peptide)
chain: GKSDPYHATSG
inactive: SHP2 C-SH2 domain E139D 0.467 | [1] 0.497 | SHP2 N-SH2 domain L43F 0.537 | SHP2 N-SH2 domain T42A 0.605 | SHP2 N-SH2 domain T52S 0.442 | [2] 0.501

B5: GDAP2_Y488_YF (peptide)
chain: ENGPFYTSFPP
inactive: SHP2 C-SH2 domain E139D 0.673 | [1] 0.806 | SHP2 N-SH2 domain L43F 0.68 | SHP2 N-SH2 domain T42A 0.603 | SHP2 N-SH2 domain T52S 0.854 | [2] 1.04

B6: GFPT1_Y367_D366Y_YF (peptide)
chain: VNFDFYTVNLG
inactive: SHP2 C-SH2 domain E139D 1.81 | [1] 1.71 | SHP2 N-SH2 domain L43F 1.67 | SHP2 N-SH2 domain T42A 1.98 | SHP2 N-SH2 domain T52S 1.87 | [2] 1.8

B7: GFPT1_Y367 (peptide)
chain: VNFDDYTVNLG
inactive: SHP2 C-SH2 domain E139D 0.849 | [1] 0.823 | SHP2 N-SH2 domain L43F 0.973 | SHP2 N-SH2 domain T42A 0.74 | SHP2 N-SH2 domain T52S 1.09 | [2] 1.16

B8: GFAP_Y116_V115I (peptide)
chain: KLADIYQAELR
inactive: SHP2 C-SH2 domain E139D 0.766 | [1] 0.886 | SHP2 N-SH2 domain L43F 0.918 | SHP2 N-SH2 domain T42A 0.73 | SHP2 N-SH2 domain T52S 1.04 | [2] 0.952

B9: GIMAP6_Y176_G171S (peptide)
chain: SSLEDYVRETN
inactive: SHP2 C-SH2 domain E139D 0.629 | [1] 0.616 | SHP2 N-SH2 domain L43F 0.724 | SHP2 N-SH2 domain T42A 0.528 | SHP2 N-SH2 domain T52S 0.575 | [2] 0.732

B10: GDNF_Y156 (peptide)
chain: AAETTYDKILK
inactive: SHP2 C-SH2 domain E139D 1.28 | [1] 1.27 | SHP2 N-SH2 domain L43F 0.801 | SHP2 N-SH2 domain T42A 0.823 | SHP2 N-SH2 domain T52S 0.708 | [2] 1.23

B11: GJA1_Y286 (peptide)
chain: MSPPGYKLVTG
inactive: SHP2 C-SH2 domain E139D 0.983 | [1] 0.7 | SHP2 N-SH2 domain L43F 0.793 | SHP2 N-SH2 domain T42A 0.662 | SHP2 N-SH2 domain T52S 0.663 | [2] 0.759

B12: GLB1_Y485_R482H (peptide)
chain: MGHVNYGAYIN
inactive: SHP2 C-SH2 domain E139D 1.17 | [1] 1.07 | SHP2 N-SH2 domain L43F 1.07 | SHP2 N-SH2 domain T42A 1.47 | SHP2 N-SH2 domain T52S 0.999 | [2] 0.891

B13: GIT2_Y392 (peptide)
chain: NDQPDYDSVAS
inactive: SHP2 C-SH2 domain E139D 0.506 | [1] 0.472 | SHP2 N-SH2 domain L43F 0.419 | SHP2 N-SH2 domain T42A 0.349 | SHP2 N-SH2 domain T52S 0.476 | [2] 0.492

B14: GLB1_Y485_N484K_YF (peptide)
chain: MGRVKYGAFIN
inactive: SHP2 C-SH2 domain E139D 2.19 | [1] 2.02 | SHP2 N-SH2 domain L43F 2.32 | SHP2 N-SH2 domain T42A 1.91 | SHP2 N-SH2 domain T52S 2 | [2] 2

B15: GDAP2_Y488_T489A (peptide)
chain: ENGPYYASYPP
inactive: SHP2 C-SH2 domain E139D 0.675 | [1] 0.488 | SHP2 N-SH2 domain L43F 0.575 | SHP2 N-SH2 domain T42A 0.586 | SHP2 N-SH2 domain T52S 0.489 | [2] 0.648

B16: GLB1_Y485 (peptide)
chain: MGRVNYGAYIN
inactive: SHP2 C-SH2 domain E139D 1.19 | [1] 1.06 | SHP2 N-SH2 domain L43F 0.993 | SHP2 N-SH2 domain T42A 1.36 | SHP2 N-SH2 domain T52S 1.19 | [2] 1.03

B17: GLB1_Y154_L155R (peptide)
chain: SSDPDYRAAVD
inactive: SHP2 C-SH2 domain E139D 0.47 | [1] 0.429 | SHP2 N-SH2 domain L43F 0.38 | SHP2 N-SH2 domain T42A 0.379 | SHP2 N-SH2 domain T52S 0.383 | [2] 0.473

B18: GJB3_Y16_G12R (peptide)
chain: SRVNKYSTAFG
inactive: SHP2 C-SH2 domain E139D 1.08 | [1] 1.02 | SHP2 N-SH2 domain L43F 0.893 | SHP2 N-SH2 domain T42A 0.943 | SHP2 N-SH2 domain T52S 0.978 | [2] 1.18

B19: GLB1_Y485_R482H_YF (peptide)
chain: MGHVNYGAFIN
inactive: SHP2 C-SH2 domain E139D 0.835 | [1] 0.744 | SHP2 N-SH2 domain L43F 0.781 | SHP2 N-SH2 domain T42A 0.861 | SHP2 N-SH2 domain T52S 0.762 | [2] 0.841
